The list shows a part of the results.
B1: ENSG00000136451:be:win_2101|3pUTR|ENSG00000136451|bound_else_gene|NA|bound_elsewhere_windowed (ssRNA)
RNA: GGGAGUUCUACAGUCCGACGAUCAUGUUAAUUUCAGGCAGCAUUCCCUAUGGGAAAGGUGAUACCAGCUCUGAUAUGCAAAGCAUAUGAUAAUUUAUCAUUCUAACUUCAACGUAUAAUAGGGAUUGUGACCUGAUAUUUGGACAACAGAGGAUUGAGCAUCA
B2: chr12:13083531:13085147:-|three_prime_utr|ENSG00000111305|control|control|control (ssRNA)
RNA: GGGAGUUCUACAGUCCGACGAUCUCCGAGCUGCGGAACAAGGGAUUUCAAAGAGGGGCCAGCCAGGAGCUGAAAGAAGCAGUUAGGUCAUCUGUAGAGGAAGAGCAGUGUUAGGAGUUAAGCGGGUUUGGGGAGUAGGCUUGACAACAGAGGAUUGAGCAUCA
B3: chr19:48404743:48404844:+|CDS|ENSG00000105464|unk|FALSE|unique (ssRNA)
RNA: GGGAGUUCUACAGUCCGACGAUCCGAGCAACAGCUUCAGGUCAUCUUUGAGGUGCUGGAGGAGUAUGACUGGACGUCCUUUGUAGCCGUGACCACUCGUGCCCCUGGCCACCGGGCCUUCCUGUCCUACAUUGAGGUGCUGACCAACAGAGGAUUGAGCAUCA
B4: chr12:68660398:68660499:+|3pUTR|ENSG00000127314|msi1|FALSE|unique (ssRNA)
RNA: GGGAGUUCUACAGUCCGACGAUCUUGAGGUGGCCAAAUGUAAACUAAAAGCCUUAAUUAAAGUGGUGCAAUUUUGUAUAACUUAGCAUCAGUAGUUCAAUAAAUUUGGAUUGCCAUGCAAGGGCUUGCAUUAUAAUUACUUGCCAACAGAGGAUUGAGCAUCA
B5: chr5:136976780:136976881:-|3pUTR|ENSG00000152377|msi1|FALSE|unique (ssRNA)
RNA: GGGAGUUCUACAGUCCGACGAUCCUUAAAUUAGCAUGUUCCAAUCCAGUCGGCAUUGCCUGAAUACAGUAGCAUCAUACCUAUAGUUGGUCUUAGAUAAGAAAUGAACUACUUGAUAUAGCAAAGUCCUUUGGCUUCGUAAAUCAACAGAGGAUUGAGCAUCA
B6: chr9:101390585:101390694:-|CDS|ENSG00000136897|unk|total|mutant (ssRNA)
RNA: GGGAGUUCUACAGUCCGACGAUCUAAUUGGCAAGACAUCUCCCUGGAAGACCGUCGUCUAAAGUUCAAUCUUCUGGCUCAUUCCGCUGAUGACUUGGGUCAUGCCGUCCCUAACUCCAGACUCCACCAGAUGUGCAGGGUCCGCAACAGAGGAUUGAGCAUCA
B7: chr17:75064992:75065093:+|3pUTR|ENSG00000180901|msi1|total|mutant (ssRNA)
RNA: GGGAGUUCUACAGUCCGACGAUCAGGCGCUUGUCCCUGUCUGCUUUCCUGGGGCAUGCCUGAUCAGCGUGGGCUGGAGCUCCCCGACCAACCCCAGCUUUCUCACCAGGUUCAGCAAGGAGGCCUGGGGGUCAGACACCAAUGCAACAGAGGAUUGAGCAUCA
B8: chr1:9729969:9730061:-|3pUTR|ENSG00000171603|msi1_unk|FALSE|overlapping (ssRNA)
RNA: GGGAGUUCUACAGUCCGACGAUCGUUUUUAUUUUUUCCAAACUAGUGCAUGUAUAAAUAAUGGCAGGAUGGGGGGUACUGUGUAGAUGAUUAACUGACUUUUUAAUAUUUUGUAAAUAAAUCGGAUUCCUUGUGUCCUUUGUGCAACAGAGGAUUGAGCAUCA
B9: ENSG00000084774:stop:overlap|stop_codon|ENSG00000084774|stop_codon|NA|stop_codon (ssRNA)
RNA: GGGAGUUCUACAGUCCGACGAUCAGGCUGAGAACGGCAUGUACAUCCGCAUGGCUCUGUUAGCCACCGUGCUGGGCCGUUUCUAGGGCCUGGCUUCCUCAGCCUCUUCUCUUUAGGCCCAGCUGCUGGGCAAGGAAUUCCAGUCAACAGAGGAUUGAGCAUCA
B10: chr5:140245379:140245480:-|3pUTR|ENSG00000113068|msi1|total|mutant (ssRNA)
RNA: GGGAGUUCUACAGUCCGACGAUCUCUUCUCUUUUCCCUUCCUGUACCUUUGACUAACGCUCAGCUUCCGGGCCUGCAUGCAGCCGACAGAAGAGGAAGAAAGAACAGAUGUUCACAGCUGAAUCUCAGUGAACAGAACCGCAGCAACAGAGGAUUGAGCAUCA
B11: ENSG00000070961:be:win_3701|3pUTR|ENSG00000070961|bound_else_gene|NA|bound_elsewhere_windowed (ssRNA)
RNA: GGGAGUUCUACAGUCCGACGAUCAGAAACAAAUUGAAACUGGGUCUUUUCACAUAUUGUGAUGGACAAGCUAGUAUUCUUGUCUUUGGACUUCAACAGAAGACACACUUGUACGAAUGUAGAUUUAUUUUUUUAAAAAAAAAACAACAGAGGAUUGAGCAUCA
B12: chr17:65014400:65014519:-|CDS|ENSG00000120063|unk|total|mutant (ssRNA)
RNA: GGGAGUUCUACAGUCCGACGAUCAAACAAGACAGACUUGCUUGAGGAGAAGGUGCAAAUUGUGAGCAUCAAAGACUAUUUCCCCGAAUUUGAAGGGGAUCCCCACUGCUUAAGAGACGUCCAAAAAUUCCUGGUGGAAUGUUUCAACAGAGGAUUGAGCAUCA
B13: chr2:207821287:207828318:-|three_prime_utr|ENSG00000178385|control|control|control (ssRNA)
RNA: GGGAGUUCUACAGUCCGACGAUCACCCGAAGGCCAGGGAUUCACCAAUCAACAAUCCAUCAGCCCCAGAGCGGCCUCCUAACUAGCCAGUUAGACCCCUUUGGAAGAAGAGUAUGUAUCCUCUUCAACUAGAUAUAGAUAUAUCAACAGAGGAUUGAGCAUCA
B14: ENSG00000198589:be:win_7551|CDS|ENSG00000198589|bound_else_gene|NA|bound_elsewhere_windowed (ssRNA)
RNA: GGGAGUUCUACAGUCCGACGAUCGCCUGGUUUGGCAACUCCCGCUGUGAUCACAGUCACUGCUAACAGGUUAUUUGCGGUGAACAAAUGGCACAACCUUCCUGCUCAUCAAGGUGCUGUACAAGACCAGCCAUACCAGCUGCCCAACAGAGGAUUGAGCAUCA
B15: chr3:62294137:62294238:+|3pUTR|ENSG00000144724|msi1|FALSE|unique (ssRNA)
RNA: GGGAGUUCUACAGUCCGACGAUCUGAGACCCUUUAGUUAUUCUCCAUUAAUGCUUCUUAGUUUGUAAUACCAUACCUCACAGUAGGUAGAAGAAUGAAAACUUCUGCAGGUGUGUAAUUUUGAAACUAGUCCUCUAAAAAUUCCAACAGAGGAUUGAGCAUCA
B16: chr1:114567884:114567985:-|3pUTR|ENSG00000116752|msi1|FALSE|bound_elsewhere (ssRNA)
RNA: GGGAGUUCUACAGUCCGACGAUCUGGUAAUUCUAUUUGUAUAUCUCAACAGAAUUAAAAUGUCUAGCUUGGUGGUAUUUUUAUAGCCAUAAAAGAAAAUCUUUAGGCUUUCAAAAUAAGGAUGACUUUAGAAUAAUAUUGUGUCAACAGAGGAUUGAGCAUCA
B17: chr1:53952023:53952124:+|CDS|ENSG00000116212|msi1|total|mutant (ssRNA)
RNA: GGGAGUUCUACAGUCCGACGAUCUACAUGCGAGAAAAUGGGCAGCUGCACAUGGUCAAUCUGGCUCUGGAUGGUGUCAGGAGCCGCCUGCAGAAGCCAAGGCCUUUCAGACUGUUCCCCAAAGGCUUUUCUGUGGAGCUUUGCCAACAGAGGAUUGAGCAUCA
B18: chr2:227556236:227556337:+|3pUTR|ENSG00000173744|msi1|FALSE|bound_elsewhere (ssRNA)
RNA: GGGAGUUCUACAGUCCGACGAUCUGUUGAAUGCCUUUUUGCAAUGAUGACUGAGUUGUUAUCAUAGUAUUUUAAAACCUGUAUAGUGUUUUAGACUUGUUAAAACAUUGCUGUCUAGUGUACAUCUAGCUAAAAGUGUGGUUUCAACAGAGGAUUGAGCAUCA
B19: ENSG00000165219:stop:overlap|stop_codon|ENSG00000165219|stop_codon|NA|stop_codon (ssRNA)
RNA: GGGAGUUCUACAGUCCGACGAUCUACCUAUAGGUAAAGAGAAUUUCUCGUAUUGGAGCUUUCUCUUAAAUCUAAUAUUUCAUUAGCCUUUGUUAUUGCUGAGUGUUUUGGAACAUAUGUUUAAGUACUUGGGAAAGUCUUUCUCAACAGAGGAUUGAGCAUCA
B20: chr5:72198766:72198867:+|CDS|ENSG00000131711|msi1_unk|FALSE|overlapping (ssRNA)
RNA: GGGAGUUCUACAGUCCGACGAUCUUCUACCUCUGCAGUCAAAGAGAAAACAGCAACUUGCCACAGUUCCUCUUCUCCACCAAUAGAUGCAGCAUCCGCAGAGCCCUAUGGCUUCCGUGCCUCAGUGUUAUUCGAUACAAUGCACAACAGAGGAUUGAGCAUCA
B21: chr3:44446857:44446958:-|CDS|ENSG00000185219|msi1|FALSE|unique (ssRNA)
RNA: GGGAGUUCUACAGUCCGACGAUCGGGAGACAUACCCUUUCCAGUCACCAGAGGAAACACACCAGAGCAGCACAGGCUGAACGUAGCCCGCCUGCACGGUCUUCCUCUCAGGACACAAAGUUGAGAUUACAGAAGCUAAAACCACAACAGAGGAUUGAGCAUCA
B22: chr15:60490033:60490134:-|3pUTR|ENSG00000069667|unk|FALSE|unique (ssRNA)
RNA: GGGAGUUCUACAGUCCGACGAUCUGCUGGAUUUGGGACAUGCUUUUCUCUUUAAAUACAUAAUAUCAUUAUAUAAAUUAUUCUAGAGUGUAUUUAAUUAGGAUAAAAUUACUUCCUUAGUAUGGAUAUUUGACAUCUAUAGGGCAACAGAGGAUUGAGCAUCA

What follows are binders tested against MSI1 full-length (mouse, UniProt Q61474 1-362) (assay: nsRBNS (natural sequence RNA bind-n-seq); RBNS binding buffer (assumed for nsRBNS): 25 mM Tris pH 7.5, 150 mM KCl, 3 mM MgCl2, 0.01% Triton X-100, 500 ug/ml BSA, 20 U/ml SUPERase-In, 4 C; UNK is unkempt and MSI1 is Musashi-1; names of the RNAs are library labels; protein concentration not given here; high values mean tight binding).
UniProt Q61474, sequence (Q61474 whole entry): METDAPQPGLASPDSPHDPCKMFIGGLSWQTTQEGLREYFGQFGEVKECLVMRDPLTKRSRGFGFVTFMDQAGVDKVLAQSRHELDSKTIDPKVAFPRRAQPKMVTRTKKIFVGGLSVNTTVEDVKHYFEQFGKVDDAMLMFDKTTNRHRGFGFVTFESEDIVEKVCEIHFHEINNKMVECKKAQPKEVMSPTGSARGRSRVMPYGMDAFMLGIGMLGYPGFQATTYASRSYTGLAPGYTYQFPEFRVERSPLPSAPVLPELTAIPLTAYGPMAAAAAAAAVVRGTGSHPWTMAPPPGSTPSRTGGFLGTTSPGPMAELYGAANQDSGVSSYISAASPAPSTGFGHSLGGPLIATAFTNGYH
With B1 the binding signal was 0.213 enrichment R.
With B2 the binding signal was 1.27 enrichment R.
Work on B3 yielded a binding signal of 0.216 enrichment R.
In the case of B4, the binding signal is reported as 0.545 enrichment R.
In the case of B5, the binding signal is reported as 71.2 enrichment R.
With B6 the binding signal was 0.406 enrichment R.
Work on B7 yielded a binding signal of 0.545 enrichment R.
With B8 the binding signal was 5.12 enrichment R.
B9 was tested, and the binding signal was 1 enrichment R.
For B10, the binding signal was 0.401 enrichment R.
For B11, the binding signal was 0.866 enrichment R.
B12 gave a binding signal of 0.239 enrichment R.
With B13 the binding signal was 2.17 enrichment R.
In the case of B14, the binding signal is reported as 0.573 enrichment R.
Work on B15 yielded a binding signal of 8.1 enrichment R.
For B16, the binding signal was 0.712 enrichment R.
In the case of B17, the binding signal is reported as 0.41 enrichment R.
B18 gave a binding signal of 2.93 enrichment R.
B19 gave a binding signal of 1.03 enrichment R.
B20 gave a binding signal of 0.463 enrichment R.
B21 was tested, and the binding signal was 0.358 enrichment R.
B22 showed a binding signal of 7.83 enrichment R.
